Results: PMC5612608 (2017)

Tests used:
natCo-NOTA-PEG2-RM26 = molecular target: T1, natCo-NOTA-PEG2-RM26 (synthetic construct, D-Phe1, statine (Sta) between His and Leu, C-terminal amide, N-terminal NOTA-PEG2 loaded with natCo); assay: competition binding with 125I-Tyr4-BBN on PC-3 cells
T1 chain: FQWAVGHL

natIn-NOTA-PEG2-RM26 = molecular target: T2, natIn-NOTA-PEG2-RM26 (synthetic construct, D-Phe1, statine (Sta) between His and Leu, C-terminal amide, N-terminal NOTA-PEG2 loaded with natIn); assay: as above
T2 chain: FQWAVGHL

B1: GRPR (protein)
chain: MALNDCFLLNLEVDHFMHCNISSHSADLPVNDDWSHPGILYVIPAVYGVIILIGLIGNITLIKIFCTVKSMRNVPNLFISSLALGDLLLLITCAPVDASRYLADRWLFGRIGCKLIPFIQLTSVGVSVFTLTALSADRYKAIVRPMDIQASHALMKICLKAAFIWIISMLLAIPEAVFSDLHPFHEESTNQTFISCAPYPHSNELHPKIHSMASFLVFYVIPLSIISVYYYFIAKNLIQSAYNLPVEGNIHVKKQIESRKRLAKTVLVFVGLFAFCWLPNHVIYLYRSYHYSEVDTSMLHFVTSICARLLAFTNSCVNPFALYLLSKSFRKQFNTQLLCCQPGLIIRSHSTGRSTTCMTSLKSTNPSVATFSLINGNICHERYV
- IC50 (natCo-NOTA-PEG2-RM26): 5.5 nM
- IC50 (natIn-NOTA-PEG2-RM26): 2.5 nM
